No constants are given. Whether binding was seen depends on the method and setting. For some assays here: Binding seen in cells or lysates may run through a third protein. Some binding calls cover weakened binding; strength is not graded here. Where a sequence is shown, tags or fusion partners need not be part of it.
T1: Trxm2 with C-terminal split YFP (Arabidopsis thaliana) (UniProt Q9SEU8)
T1 sequence: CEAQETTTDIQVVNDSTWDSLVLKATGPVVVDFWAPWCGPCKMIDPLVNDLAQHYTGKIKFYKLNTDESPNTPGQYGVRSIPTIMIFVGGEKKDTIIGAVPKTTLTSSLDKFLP

T2: Trxm2 with N-terminal split YFP (Arabidopsis thaliana) (UniProt Q9SEU8)
T2 sequence: T1 sequence

T3: thioredoxin m2 (Trxm2), yeast two-hybrid fusion (Arabidopsis thaliana) (UniProt Q9SEU8)
T3 sequence: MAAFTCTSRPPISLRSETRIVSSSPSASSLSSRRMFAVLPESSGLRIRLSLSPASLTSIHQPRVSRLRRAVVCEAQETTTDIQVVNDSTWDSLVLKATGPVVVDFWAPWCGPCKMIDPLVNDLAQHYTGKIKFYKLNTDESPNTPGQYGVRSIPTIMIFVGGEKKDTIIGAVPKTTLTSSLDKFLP

B1: PGD3 with C-terminal split YFP (enzyme, UniProt Q9FFR3 1-487)
chain: MESVALSRIGLAGLAVMGQNLALNIADKGFPISVYNRTTSKVDETLDRASNEGKLPVAGQYSPRDFVLSIQRPRSVIILVKAGAPVDQTISALSEYMEPGDCIIDGGNEWYQNTERRIVEAEKKGLLYLGMGVSGGEEGARNGPSLMPGGSFTAYNNVKDILEKVAAQVEDGPCVTYIGEGGSGNFVKMVHNGIEYGDMQLISEAYDVLKNVGGLSNDELAEIFTEWNRGELESFLVEITSDIFRVKDDYGDGELVDKILDKTGMKGTGKWTVQQAAELSVAAPTIAASLDCRYLSGLKDERENAAKVLEEAGLKEDIGSASRGVDKKRLIDDVRQALYASKICSYAQGMNLLRAKSLEKGWDLNLGEMARIWKGGCIIRAVFLDRIKKAYQRNPNLASLVVDPDFAKEMVQRQAAWRRVVGLAISAGISTPGMCASLAYFDTYRRARLPANLVQAQRDLFGAHTYERTDRPGAYHTEWTKLARKSQ
B2: PGD1 with C-terminal split YFP (enzyme, UniProt Q9SH69 1-487)
chain: MESAALSRIGLAGLAVMGQNLALNIAEKGFPISVYNRTTSKVDETLDRAAVEGNLPVSGQYSPRDFVLSIQRPRSLIILVKAGAPVDQTIDAFSEYMEPGDCIIDGGNEWYQNTERRISEAEQKGLLYLGMGVSGGEEGARNGPSLMPGGSFQAYDNIKDILEKVAAQVEDGPCVTYIGEGGSGNFVKMVHNGIEYGDMQLISEAYDVLKNVGGLSNEELAEIFTEWNSGELESFLVEITSDIFRVKDEFGDGELVDKILDKTGMKGTGKWTVQQAAELSVAAPTIAASLDCRYLSGLKDERENAAKVLREAGLKEEIGSASSGIDKKRLVDDVRQALYASKICSYAQGMNLLRAKSLEKSWNLNFGELARIWKGGCIIRAVFLDRIKKAYQRNPDLASLVVDPEFAKEMVQRQAAWRRVVGLAVSAGISTPGMCASLAYFDTYRRARLPANLVQAQRDLFGAHTYERTDRPGAYHTEWTKLARKNH
B3: PGD3 with N-terminal split YFP (enzyme, UniProt Q9FFR3 1-487)
chain: B1 chain
B4: split YFP–PGD2_Δ15 (N-terminal split YFP) (domain or fragment, UniProt Q9FWA3 16-486)
chain: MGQNLALNIAEKGFPISVYNRTTSKVDETVERAKKEGNLPLYGFHDPESFVKSIQKPRVIIMLVKAGSPVDQTIKTLSAYLEKGDCIVDGGNEWYENTERREKAVAENGFLYLGMGVSGGEEGARNGPSMMPGGSYEAYKNIEDIVLKVAAQVRDSGPCVTYIGKGGSGNFVKMVHNGIEYGDMQLIAEAYDVLKSVGKLSNEELHSVFSDWNKGELESFLVEITADIFGIKDDKGDGHLVDKVLDKTGMKGTGKWTVQQAAELSVPAPTIESSLDARFLSGLKDERVQAAKVFKAGGFGDILTDQKVDKKQLVDDVRKALYASKICSYAQGMNLIRAKSIEKGWGLKLGELARIWKGGCIIRAIFLDRIKQAYDRNAELANLLVDPEFAKEIIERQSAWRRVVCLAINSGISTPGMSASLAYFDSYRRERLPANLVQAQRDYFGAHTYERTDVEGSFHTEWFKIARQSKI
B5: PGD1 with N-terminal split YFP (enzyme, UniProt Q9SH69 1-487)
chain: B2 chain
B6: N-terminally truncated PGD1 (starting with the second Met at position 17), yeast two-hybrid fusion (domain or fragment, UniProt Q9SH69 17-487)
chain: MGQNLALNIAEKGFPISVYNRTTSKVDETLDRAAVEGNLPVSGQYSPRDFVLSIQRPRSLIILVKAGAPVDQTIDAFSEYMEPGDCIIDGGNEWYQNTERRISEAEQKGLLYLGMGVSGGEEGARNGPSLMPGGSFQAYDNIKDILEKVAAQVEDGPCVTYIGEGGSGNFVKMVHNGIEYGDMQLISEAYDVLKNVGGLSNEELAEIFTEWNSGELESFLVEITSDIFRVKDEFGDGELVDKILDKTGMKGTGKWTVQQAAELSVAAPTIAASLDCRYLSGLKDERENAAKVLREAGLKEEIGSASSGIDKKRLVDDVRQALYASKICSYAQGMNLLRAKSLEKSWNLNFGELARIWKGGCIIRAVFLDRIKKAYQRNPDLASLVVDPEFAKEMVQRQAAWRRVVGLAVSAGISTPGMCASLAYFDTYRRARLPANLVQAQRDLFGAHTYERTDRPGAYHTEWTKLARKNH
B7: 6-phosphogluconate dehydrogenase 3 (PGD3), full length, yeast two-hybrid fusion (enzyme, UniProt Q9FFR3 1-487)
chain: B1 chain
B8: 6-phosphogluconate dehydrogenase 2 (PGD2), full length, yeast two-hybrid fusion (enzyme, UniProt Q9FWA3 1-486)
chain: MAVQPTRIGLAGLAVMGQNLALNIAEKGFPISVYNRTTSKVDETVERAKKEGNLPLYGFHDPESFVKSIQKPRVIIMLVKAGSPVDQTIKTLSAYLEKGDCIVDGGNEWYENTERREKAVAENGFLYLGMGVSGGEEGARNGPSMMPGGSYEAYKNIEDIVLKVAAQVRDSGPCVTYIGKGGSGNFVKMVHNGIEYGDMQLIAEAYDVLKSVGKLSNEELHSVFSDWNKGELESFLVEITADIFGIKDDKGDGHLVDKVLDKTGMKGTGKWTVQQAAELSVPAPTIESSLDARFLSGLKDERVQAAKVFKAGGFGDILTDQKVDKKQLVDDVRKALYASKICSYAQGMNLIRAKSIEKGWGLKLGELARIWKGGCIIRAIFLDRIKQAYDRNAELANLLVDPEFAKEIIERQSAWRRVVCLAINSGISTPGMSASLAYFDSYRRERLPANLVQAQRDYFGAHTYERTDVEGSFHTEWFKIARQSKI
B9: N-terminally truncated PGD3 (starting with the second Met at position 17), yeast two-hybrid fusion (domain or fragment, UniProt Q9FFR3 17-487)
chain: MGQNLALNIADKGFPISVYNRTTSKVDETLDRASNEGKLPVAGQYSPRDFVLSIQRPRSVIILVKAGAPVDQTISALSEYMEPGDCIIDGGNEWYQNTERRIVEAEKKGLLYLGMGVSGGEEGARNGPSLMPGGSFTAYNNVKDILEKVAAQVEDGPCVTYIGEGGSGNFVKMVHNGIEYGDMQLISEAYDVLKNVGGLSNDELAEIFTEWNRGELESFLVEITSDIFRVKDDYGDGELVDKILDKTGMKGTGKWTVQQAAELSVAAPTIAASLDCRYLSGLKDERENAAKVLEEAGLKEDIGSASRGVDKKRLIDDVRQALYASKICSYAQGMNLLRAKSLEKGWDLNLGEMARIWKGGCIIRAVFLDRIKKAYQRNPNLASLVVDPDFAKEMVQRQAAWRRVVGLAISAGISTPGMCASLAYFDTYRRARLPANLVQAQRDLFGAHTYERTDRPGAYHTEWTKLARKSQ
B10: PGD2_Δ15 (starting with the second Met at position 16), yeast two-hybrid fusion (domain or fragment, UniProt Q9FWA3 16-486)
chain: B4 chain
B11: 6-phosphogluconate dehydrogenase 1 (PGD1), full length, yeast two-hybrid fusion (enzyme, UniProt Q9SH69 1-487)
chain: B2 chain

target: T1, Trxm2 with C-terminal split YFP (Arabidopsis thaliana); test: split reporter; BiFC of split YFP fusion constructs in Arabidopsis leaf protoplasts, 48 h post-transfection; YFP halves both C-terminal or both N-terminal

| binding | Binder |
| --- | --- |
| binds | B1 |
| binds | B2 |

target: T2, Trxm2 with N-terminal split YFP (Arabidopsis thaliana); test: as above

| binding | Binder |
| --- | --- |
| binds | B3 |
| binds | B4 |
| binds | B5 |

target: T3, thioredoxin m2 (Trxm2), yeast two-hybrid fusion (Arabidopsis thaliana); test: two-hybrid; yeast strain SMY3, drop-out series of BD–AD combinations; read-out: Trxm2 autoactivation (with the empty vector) is revoked by an interacting partner

| binding | Binder |
| --- | --- |
| no binding | B6 |
| binds | B7 |
| binds | B8 |
| no binding | B9 |
| binds | B10 |
| binds | B11 |

Reference: PMC11103113, “Evidence for dual targeting control of Arabidopsis 6-phosphogluconate dehydrogenase isoforms by N-terminal phosphorylation” (Journal of Experimental Botany, 2024)
